{"source": "paper PMC4336329", "about": "(PLoS ONE, 2015)", "note": "Hit rate of the full screen: of about 310,000 compounds, about 14,000 (4.5%) showed an effect of 50% or more. The effect is printed as a negative number. This is one part of the list.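 Further: peak tail current of the secondary pulse compared with the same well before compound.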"}
{"biological_target": "human ether-à-go-go-related gene (hERG) potassium channel (human, UniProt Q12809)", "sequence (Q12809 whole entry, looked up)": "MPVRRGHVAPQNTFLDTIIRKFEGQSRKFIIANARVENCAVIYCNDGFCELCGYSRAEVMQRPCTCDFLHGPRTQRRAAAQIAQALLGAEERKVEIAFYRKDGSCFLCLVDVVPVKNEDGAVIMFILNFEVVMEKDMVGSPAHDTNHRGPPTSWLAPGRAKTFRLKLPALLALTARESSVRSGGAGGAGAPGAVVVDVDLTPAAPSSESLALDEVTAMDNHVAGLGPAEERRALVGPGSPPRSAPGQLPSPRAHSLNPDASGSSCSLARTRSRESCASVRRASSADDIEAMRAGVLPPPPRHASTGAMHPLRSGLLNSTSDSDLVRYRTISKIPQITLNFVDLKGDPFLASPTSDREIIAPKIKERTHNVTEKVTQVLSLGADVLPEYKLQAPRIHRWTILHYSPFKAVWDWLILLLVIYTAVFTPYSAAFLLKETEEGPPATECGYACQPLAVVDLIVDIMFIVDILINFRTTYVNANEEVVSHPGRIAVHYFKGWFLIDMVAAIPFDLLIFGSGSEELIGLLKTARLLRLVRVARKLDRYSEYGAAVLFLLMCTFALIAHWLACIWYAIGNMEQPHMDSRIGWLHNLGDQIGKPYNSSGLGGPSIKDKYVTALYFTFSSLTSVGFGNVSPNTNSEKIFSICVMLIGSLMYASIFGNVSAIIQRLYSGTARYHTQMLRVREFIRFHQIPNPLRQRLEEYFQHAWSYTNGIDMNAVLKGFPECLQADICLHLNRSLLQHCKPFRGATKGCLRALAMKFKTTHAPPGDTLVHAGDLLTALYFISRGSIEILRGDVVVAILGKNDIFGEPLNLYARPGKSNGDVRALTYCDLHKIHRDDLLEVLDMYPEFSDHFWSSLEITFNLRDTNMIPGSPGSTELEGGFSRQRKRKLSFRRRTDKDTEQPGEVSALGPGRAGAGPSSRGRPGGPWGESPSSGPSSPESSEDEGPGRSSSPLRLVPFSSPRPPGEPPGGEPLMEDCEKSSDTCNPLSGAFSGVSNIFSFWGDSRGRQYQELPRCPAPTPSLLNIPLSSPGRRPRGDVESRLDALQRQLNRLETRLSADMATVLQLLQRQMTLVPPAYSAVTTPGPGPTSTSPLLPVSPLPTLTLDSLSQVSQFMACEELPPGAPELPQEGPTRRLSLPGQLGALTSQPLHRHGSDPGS", "test": "primary screen, population patch clamp on CHO cells stably expressing hERG", "units": {"hERG current change (%, negative = inhibition) at 10uM": "%"}}
{"smiles": "CCCC(=O)Nc1ccc(NC(=S)NC(=O)c2cccs2)cc1", "hERG current change (%, negative = inhibition) at 10uM": 8.56}
{"smiles": "CC(=O)N1CC2(NC(=O)c3ccccc3N2)c2ccccc21", "note": "(stereo not shown)", "hERG current change (%, negative = inhibition) at 10uM": 5.27}
{"smiles": "Cc1noc2ncnc(Oc3ccc(Cl)cc3Cl)c12", "hERG current change (%, negative = inhibition) at 10uM": 6.58}
{"smiles": "COc1cccc(NC(=O)COc2ccccc2C(N)=O)c1", "hERG current change (%, negative = inhibition) at 10uM": -1.66}
{"smiles": "CCOC(=O)Nc1cccc(Nc2ccccc2)c1", "hERG current change (%, negative = inhibition) at 10uM": -74.8}
{"smiles": "O=C1c2ccccc2C(=O)N1OS(=O)(=O)c1ccc(F)cc1", "hERG current change (%, negative = inhibition) at 10uM": 21.7}
{"smiles": "Cn1nc(C(=O)NCc2ccc(F)cc2)c2ccccc2c1=O", "hERG current change (%, negative = inhibition) at 10uM": -12.8}
{"smiles": "O=C(NCCOc1ccccc1Cl)c1cc(F)c(F)cc1Cl", "hERG current change (%, negative = inhibition) at 10uM": -17.9}
{"smiles": "Cc1cc(C(=O)OCC(=O)N2c3ccccc3NC(=O)C2(C)C)c(C)n1-c1ccccc1", "hERG current change (%, negative = inhibition) at 10uM": 14}
{"smiles": "CCCNC(=O)Cn1cnc2sc(C(=O)N3CCN(c4ccc(F)cc4)CC3)c(C)c2c1=O", "hERG current change (%, negative = inhibition) at 10uM": -32.1}
{"smiles": "CCn1c2ccc(F)cc2c2nnc(NN)nc21", "hERG current change (%, negative = inhibition) at 10uM": -9.93}
{"smiles": "Nc1nc(NCC2CCCO2)nc(Nc2ccc(Cl)cc2)c1[N+](=O)[O-]", "note": "(stereo not shown)", "hERG current change (%, negative = inhibition) at 10uM": 12.6}
{"smiles": "CCOC(=O)C1ON2CCCCC2C1(O)C(F)(F)F", "note": "(stereo not shown)", "hERG current change (%, negative = inhibition) at 10uM": 19.7}
{"smiles": "O=C(O)CCSc1ccc([N+](=O)[O-])cc1[N+](=O)[O-]", "hERG current change (%, negative = inhibition) at 10uM": 22.7}
{"smiles": "Oc1ccc(-c2[nH]ncc2-c2cccc3cccnc23)c(O)c1", "hERG current change (%, negative = inhibition) at 10uM": 32.1}
{"smiles": "CCOC(=O)Cn1cnc2c(C#N)c3n(c2c1=O)CCCCC3", "hERG current change (%, negative = inhibition) at 10uM": -9.52}
{"smiles": "O=C(COc1ccccc1)N(CCc1ccccc1)c1nc(-c2ccc(F)cc2)cs1", "hERG current change (%, negative = inhibition) at 10uM": 6.69}
{"smiles": "Cc1cccc(C(=O)NNc2ncnc3c2cnn3C)c1", "hERG current change (%, negative = inhibition) at 10uM": 11.2}
{"smiles": "CCOC1CCCCC1NS(=O)(=O)c1ccc(Cl)cc1", "note": "(stereo not shown)", "hERG current change (%, negative = inhibition) at 10uM": -8.18}
{"smiles": "COc1cc(C(=O)OCC(=O)c2cc(C)n(CC3CCCO3)c2C)ccc1OCC(=O)N1CCOCC1", "note": "(stereo not shown)", "hERG current change (%, negative = inhibition) at 10uM": 7.69}
{"smiles": "O=C(c1cc2ccccc2o1)n1nnc2ccccc21", "hERG current change (%, negative = inhibition) at 10uM": 7.25}
{"smiles": "COc1ccccc1C1=NOC(COC(=O)c2ccc3ccccc3n2)C1", "note": "(stereo not shown)", "hERG current change (%, negative = inhibition) at 10uM": -14.9}
{"smiles": "Cc1cc(C)cc(OCC(=O)N(Cc2ccccc2)C2CCS(=O)(=O)C2)c1", "note": "(stereo not shown)", "hERG current change (%, negative = inhibition) at 10uM": -20.9}
{"smiles": "Cc1ccc(NC(=O)/C=C/c2ccco2)cc1S(=O)(=O)N1CCCCCC1", "hERG current change (%, negative = inhibition) at 10uM": -15.6}
{"smiles": "O=C(CCC(=O)N1CCN(S(=O)(=O)c2ccc(Cl)cc2)CC1)Nc1cccc(Br)c1", "hERG current change (%, negative = inhibition) at 10uM": -37}
